# According to PubChem BioAssay AID488969 (Vanderbilt High Throughput Screening Facility, 2010):
# In all, about 110,000 compounds were measured (“z-score”: median about -0.1, highest 2% from about 2 on). The list shows a part of the results. Activity calls are given as the source filed them.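 The calls were made as follows: active = z-score in the third read window above 3 or below -3; inactive = the rest.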 Residues, ends and D or L forms follow the SMILES beside them. *: point of attachment. Boc = CC(C)(C)OC(=O)*
# Target: Metabotropic glutamate receptor 8 (Rattus norvegicus) (UniProt P70579)
# Assay: mGluR8 Gi/Go-coupled signaling modulation – cell-based, rat, thallium flux, HTS, primary screen (AID 488969)
# Conditions: HEK293 rat mGluR8, GIRK (G protein-gated inwardly rectifying potassium channel) thallium flux, FluoZin2; at 10 µM; stronger effect = higher value; submaximal glutamate (EC20) added with thallium
# UniProt P70579, sequence (P70579 whole entry, looked up): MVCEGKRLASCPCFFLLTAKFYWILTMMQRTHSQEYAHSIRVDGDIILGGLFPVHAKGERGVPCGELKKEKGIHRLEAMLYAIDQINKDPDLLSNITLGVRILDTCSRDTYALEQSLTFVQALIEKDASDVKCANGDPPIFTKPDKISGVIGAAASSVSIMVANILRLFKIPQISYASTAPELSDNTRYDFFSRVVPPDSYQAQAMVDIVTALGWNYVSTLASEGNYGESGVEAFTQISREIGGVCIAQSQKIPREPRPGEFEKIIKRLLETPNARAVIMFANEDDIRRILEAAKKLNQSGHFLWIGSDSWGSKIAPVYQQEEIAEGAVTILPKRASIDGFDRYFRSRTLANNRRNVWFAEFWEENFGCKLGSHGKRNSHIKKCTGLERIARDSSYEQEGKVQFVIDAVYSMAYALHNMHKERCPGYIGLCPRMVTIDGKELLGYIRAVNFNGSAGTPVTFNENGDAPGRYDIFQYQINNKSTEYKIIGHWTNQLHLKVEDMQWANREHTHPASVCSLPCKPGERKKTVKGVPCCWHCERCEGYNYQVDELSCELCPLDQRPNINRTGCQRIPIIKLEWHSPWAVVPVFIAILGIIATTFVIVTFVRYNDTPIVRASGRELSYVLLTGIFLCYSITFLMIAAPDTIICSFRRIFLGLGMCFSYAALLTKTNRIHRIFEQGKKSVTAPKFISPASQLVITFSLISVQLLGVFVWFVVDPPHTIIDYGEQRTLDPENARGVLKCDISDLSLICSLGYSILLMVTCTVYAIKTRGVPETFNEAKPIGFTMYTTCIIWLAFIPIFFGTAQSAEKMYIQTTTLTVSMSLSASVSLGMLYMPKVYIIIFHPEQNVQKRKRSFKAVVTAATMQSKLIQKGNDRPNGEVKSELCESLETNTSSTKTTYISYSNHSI
row,Compound,z-score
1,COc1ccc2[nH]cc(C(=O)CNc3nc(C)cs3)c2c1,0.42
2,CCCCNC(=O)CC(=O)Nc1ccccc1C(=O)O,1.35
3,CN(Cc1ccccc1)C(=O)CCn1c(=O)oc2ccccc21,2.02
4,COc1ccc(C(=O)NC(=S)Nc2ccccc2F)cc1,0.595
5,O=C(NC(=S)Nc1ccc(S(=O)(=O)N2CCCCC2)cc1)c1ccc(Cl)cc1,-0.168
6,Cc1ccc(C(=O)CC(=O)COc2ccc(Cl)cc2C)cc1,active: 5.45
7,Cc1ccc(S(=O)(=O)Nc2nc(C)cc(N/N=C/c3ccc(O)cc3)n2)cc1,0.778
8,CC(=O)N1CCc2c(sc(NC(=O)c3ccc(S(=O)(=O)N(C)C)cc3)c2C#N)C1,0.13
9,COc1cccc(OC)c1C(=O)Nc1ccc(S(=O)(=O)Nc2cc(C)nc(C)n2)cc1,-1.02
10,Cc1ccc(C2CC(c3cccs3)=NN2C(=O)CSC2=NN3CCCC(=O)N=C3S2)cc1 (stereo not given),-0.0424
11,Cc1nnc(NC(=O)c2ccc(C)c(S(=O)(=O)N3CCOCC3)c2)s1,0.00698
12,Cc1ccsc1C(=O)NNC(=O)C1CCCCC1C(=O)O (stereo not given),0.42
13,Cc1ccc(C)c(OCCn2cc(/C=C(/C#N)C(=O)NCC3CCCO3)c3ccccc32)c1 (stereo not given),0.112
14,C=CCSC1=N/C(=C\c2cc(OC)c3c(c2)OCO3)C(=O)S1,0.0902
15,CCC(=O)N1c2ccc(S(=O)(=O)N(CCO)Cc3ccccc3)cc2CC1C (stereo not given),-0.062
16,CCOCCCN1CN(S(=O)(=O)c2ccc(Cl)cc2)c2nc3ccccc3nc21,-0.388
17,CC(=O)OCC1OC(c2ccccc2)C(OC(C)=O)C(OC(C)=O)C1OC(C)=O (stereo not given),-0.205
18,Cc1cc(=O)[nH]c(SCC(=O)c2ccc(C)c(C)c2)n1,0.98
19,COC(=O)c1sc2nc(N3CCCCC3)c3c(c2c1N)CC(C)(C)N(C)C3,0.971
20,Cn1c(=O)[nH]c(=O)c2c1nc(N1CCN(Cc3ccccc3)CC1)n2CCCc1ccccc1,-0.239
21,CCOc1ccc(Cn2c(O)cc(=O)[nH]c2=O)cc1,0.565
22,O=C1CC(c2ccccc2)CC2=C1C(c1ccccn1)Nc1ccccc1N2 (stereo not given),0.618
23,Cc1ccc(N2C(=O)NC(C(F)(F)F)(C(F)(F)F)C3=C2CC(C)(C)CC3=O)cc1,-0.225
24,CC(C)(C)N/N=C/c1cc(Cl)cc([N+](=O)[O-])c1O,0.0144

row,Compound,z-score
1,N#CCC(=O)NCC1(c2ccccc2)CCCC1,-0.301
2,COc1ccc(CN2C(=O)c3cccnc3C2Nc2ccc(OC)c(Cl)c2)cc1 (stereo not given),-0.22
3,CCCCN(C)CCC(=O)Nc1ccc(Cl)cc1,0.137
4,Cc1ccc(OCC(=O)Nc2cccc(-c3nnc(-c4ccccc4)o3)c2)c(C)c1,-0.0668
5,O=C(CCC(=O)Nc1nnc(C2CCCCC2)s1)NCc1cccs1,-0.0529
6,Cc1ccc(NCC(=O)N/N=C/c2ccc(OC(=O)c3ccco3)cc2)cc1,0.0308
7,Cc1nc(SC(C(=O)c2ccccc2)c2ccccc2)nc2ccccc12 (stereo not given),1.63
8,O=C(CSc1nc2cc(Cl)ccc2s1)N1CCN(C(=O)c2ccco2)CC1,-0.726
9,CC(C)(C)OC(=O)N1CCCC1C(=O)NC(Cc1ccccc1)C(=O)O (stereo not drawn) (Boc-Pro-Phe-OH; configuration not given here),-0.151
10,CCOC(=O)CSc1ncc(-c2ccccc2)nn1,-2.57
11,O=C(N/N=C\c1ccc(Cl)s1)c1cccs1,active: 8.64
12,O=C(COC(=O)/C=C/c1ccc(Cl)cc1)Nc1ccc2c(c1)OCCO2,0.0864
13,Cc1ccn2cc(CNS(=O)(=O)c3ccc4c(c3)OCCO4)nc2c1,-0.0245
14,CN(C)c1ccc(C(=O)c2ccc(O)cc2O)cc1,-0.399
15,c1ccc(CCn2c(C3CC3)nc3ccccc32)cc1,-0.659
16,CCN(Cc1ccccc1)C(c1cccc(C#N)c1)c1nnnn1C(C)(C)C (stereo not given),0.275
17,CCn1c(SCC(=O)N2CCOCC2)nc(O)cc1=O,-0.0054
18,CCCC(C(=O)NCC1CCCO1)N(Cc1ccco1)C(=O)CNS(=O)(=O)c1ccc(F)cc1 (stereo not given),-0.809
19,O=C(CSc1nc2ccccc2s1)N1N=C(c2cccs2)CC1c1ccc(F)cc1 (stereo not given),-0.0436
20,CCOC(=O)c1ccc(S(=O)(=O)N2CCC(C(=O)OCC)CC2)cc1,0.34
21,O=C(O)c1nc2ccccc2nc1C(=O)O,-0.495
22,CS(=O)(=O)N(CC(=O)N1CCCCCC1)c1ccc2c(c1)OCCO2,0.0779
23,COn1c(-c2ccc(Cl)cc2)nc2ccc(Cl)cc21,-0.214
24,CCCN(CC(=O)Nc1ccccc1C)C(=O)/C=C/c1cccs1,-0.124

row,Compound,z-score
1,Cc1ccc(C(=O)NN(C)c2nc3ccccc3nc2C(F)(F)F)cc1,0.198
2,O=C(O)c1ccccc1SCc1ccc2c(c1)OCO2,-0.169
3,O=S(=O)(c1cccc(Cl)c1Cl)N1CCCCC1,-0.119
4,COc1cccc(NC(=O)Nc2ccc3nsnc3c2)c1,-0.514
5,S=C(Nc1ccccc1)Nc1nc2ccccc2n1CCOc1ccc(Cl)cc1,1.72
6,N=C1C(c2ccc(Br)cc2)=C(O)C2CCc3ccccc3N12 (stereo not given),-1
7,CC(=O)N1C(Nc2ccc(Cl)cc2)CCN1c1ccccc1 (stereo not given),-0.233
8,CCn1nnc(NC(=O)COc2cc(C)ccc2C(C)C)n1,-0.0287
9,C=CCn1c(NCc2c[nH]c3ccccc23)nc2ccccc21,-1.62
10,Cc1ccc(C2CC(c3ccc(Cl)cc3)=NNC2=O)cc1 (stereo not given),-0.0691
11,CCOC(=O)CC1=Nc2ccccc2NC(=O)C1,0.695
12,CCCn1nc2cc(C(=O)NCc3ccccc3)ccc2c1OCC,-0.0713
13,CN(C)C(C)(C)C#CCCCCC#CC(C)(C)N(C)C,-0.195
14,Cc1cc(C)n(-c2ccc(C)c(Cl)c2)n1,-0.078
15,CCN(/N=C/C=C/c1ccccc1)c1cc(=O)n(C)c(=O)[nH]1,-0.682
16,CC(=O)c1ccc(-n2nnnc2SCC(=O)Nc2sc(C)c(C)c2C#N)cc1,-0.133
17,CCCS(=O)(=O)c1c(S(=O)(=O)CCC)c2c(N)cccn2c1C(=O)c1ccccc1,0.09
18,CC(=O)/C(=N\Nc1cccc(Cl)c1)Sc1cccc2cccnc12,0.635
19,CC(C)c1nnc(NC(=O)CCC(=O)N2CCN(Cc3ccccc3)CC2)s1,0.83
20,Cc1cc(C)cc(NC(=O)CN2CCN(CCN=CC3=C(O)CC(C)(C)CC3=O)CC2)c1,0.0426
21,COc1cc(/C=C(/C#N)c2ccc(C)cc2)ccc1Oc1ccc([N+](=O)[O-])cn1,-0.0458
22,COc1ccc(CNC(=O)COC(=O)c2ccc(OCc3c(C)noc3C)cc2)cc1OC,-0.353
